Our source for the binding signal values is publication PMC7819943, “Rice protein-binding microarrays: a tool to detect cis-acting elements near promoter regions in rice”.

The list shows a part of the results.

This assay concerns the target T1, OsWOX13 (Oryza sativa, UniProt Q5QMM3 1-267).
T1 sequence: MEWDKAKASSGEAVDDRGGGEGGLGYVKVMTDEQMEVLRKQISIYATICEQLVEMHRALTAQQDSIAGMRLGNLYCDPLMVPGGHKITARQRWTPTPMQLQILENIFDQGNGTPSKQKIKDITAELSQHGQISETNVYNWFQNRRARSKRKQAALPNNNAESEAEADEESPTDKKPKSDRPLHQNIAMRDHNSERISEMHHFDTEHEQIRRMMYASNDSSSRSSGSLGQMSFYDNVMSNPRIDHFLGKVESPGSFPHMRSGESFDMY
The experiment in a line: protein-binding microarray (RPBM); PBS, 2% BSA, 51.3 ng/ul salmon testes DNA, 50 uM zinc acetate, 200 nM TF, 25 C, 1 h; high values mean tight binding. To be noted: protein: recombinant; tags: N-terminal polyhistidine and DsRed monomer fusion (pET32a); label: CyDye5-dUTP incorporated in the synthesized complementary strand; 3' TTTTT single-stranded linker to array surface; dsDNA, one strand shown. In short, it runs like this: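 Binding signal here means per-feature fluorescence intensity in arbitrary units. The values were read on an Axon 4000B scanner after a custom Agilent array, double-stranded by primer extension with Cy5-dUTP, was incubated with 200 nM protein at 25 °C for 1 h in PBS with 2% BSA, salmon testes DNA and 50 µM zinc acetate, then washed. The proteins were transcription factors with an N-terminal polyhistidine tag and DsRed, expressed in E. coli BL21-CodonPlus and purified on Ni–NTA.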
Regarding “TGAAGGAAGCTAATTACAGAATTAGCATACATGTTGCCGCCGGAGTCACCTAGTGCAG”, the binding signal was 3940 fluorescence intensity (a.u.). Take “AGATTTAATTGTAACGAACACAATGGTGTAATCGGATGGTCGGAGTCACCTAGTGCAG”: the binding signal is 24100 fluorescence intensity (a.u.).

Take “ACATGCCCTTAATTGAAGCCACAAATTCCAGTCCAAATCCCGGAGTCACCTAGTGCAG”: the binding signal was 19400 fluorescence intensity (a.u.). Under “TAACTAAATTTATAGACAAATATAGTAATATTTATAATACCGGAGTCACCTAGTGCAG” stands 7770 fluorescence intensity (a.u.); under “TTCTGATTAGGCTGCCACATTGGCGGCACGTGTGATAGCTCGGAGTCACCTAGTGCAG”, 29100 fluorescence intensity (a.u.); under “AGGCACTAAAATAATCTAATTGATTAACTAATCGGTCACCCGGAGTCACCTAGTGCAG”, 25300 fluorescence intensity (a.u.). Turning to “ATATTTCTTTGTCAAGTTTGATTACTGGCTCGACATGGGGCGGAGTCACCTAGTGCAG”, the binding signal was 3560 fluorescence intensity (a.u.). As for “ATATAAATATTAGTAATCAATTGAGGGAACATTTGATTTGCGGAGTCACCTAGTGCAG”, the figure is 11300 fluorescence intensity (a.u.); as for “GGAGATTGAGATGGTCGGAAATTTAAACAAGACGCTTTCTCGGAGTCACCTAGTGCAG”, 9750 fluorescence intensity (a.u.); as for “ATCCGACAAAGTGATTTGTAAGATTGTTCACAAAATGTACCGGAGTCACCTAGTGCAG”, 3290 fluorescence intensity (a.u.). For “ATATATATATATATATATATATAAGTTTCCACGAATAAGGCGGAGTCACCTAGTGCAG”, the binding signal is 16300 fluorescence intensity (a.u.). Under “GCTAATTAAGCTTCCAACTCTGCCTCGCCCTCGCTCTCCTCGGAGTCACCTAGTGCAG” stands 24500 fluorescence intensity (a.u.); under “GATCCTTCAAGCATCAATCACCTACCGATTTACCAACCCACGGAGTCACCTAGTGCAG”, 3920 fluorescence intensity (a.u.). Under “TGGTGTAGAGAAGTACAATACATGTATGCAAGCTTACATGCGGAGTCACCTAGTGCAG” stands 7210 fluorescence intensity (a.u.); under “CCGAAATTGTGAACCCTGAGCTAGTCAGTCCCATCCTTTTCGGAGTCACCTAGTGCAG”, 3650 fluorescence intensity (a.u.); under “CCTGCCAATCTACCATACATGCACCACTGCTCCACCGCCACGGAGTCACCTAGTGCAG”, 3460 fluorescence intensity (a.u.). As for “CAACATGTTTGACTAATTACATAGTGTATTGATCCCAAGGCGGAGTCACCTAGTGCAG”, the figure is 6530 fluorescence intensity (a.u.). In the case of “GCTCGATCCATTTAGGTAATTACTGCTCAACTAGCGATGACGGAGTCACCTAGTGCAG”, the binding signal was 10300 fluorescence intensity (a.u.). Under “AGATAATTGTGTCATCAGGAGGCCATGGCCATGATAGCAACGGAGTCACCTAGTGCAG” stands 15000 fluorescence intensity (a.u.). Under “TCAAATCTTACATGTAAATTTTAAAATTTACATTGTAATTCGGAGTCACCTAGTGCAG” stands 7560 fluorescence intensity (a.u.); under “AGCCTAATTAATACATAATTAGCACATGTTTACTGTAGCACGGAGTCACCTAGTGCAG”, 55100 fluorescence intensity (a.u.); under “TCTACTAATTAGGGATATTTTGGTCCATTATCCTTCTCCCCGGAGTCACCTAGTGCAG”, 38300 fluorescence intensity (a.u.). As for “CCAAACTGGGCTTAACCGAACGCACACTTTCTTGTAGGCCCGGAGTCACCTAGTGCAG”, the figure is 8040 fluorescence intensity (a.u.).
